# Assay results taken from PubChem BioAssay AID1030 (National Center for Advancing Translational Sciences (NCATS), 2008).
# “And” between values parts separate entries of the source, which are not always exact repeats. Identical values can stand only once. In all, about 220,000 compounds went through this assay and about 16,000 (7.3%) were called active. This list was built around the results that the source calls inconclusive (neither active nor inactive); the mix of calls is not that of the screen. Calls follow the shape of the dose curve; as a rule, active = well fitted inhibition curve with a large enough effect (not every such curve was filed as active); inconclusive = small, poorly fitted or top-dose-only effect, or another doubt; inactive = no such curve, though single readings can be large or run the other way. A potency beside an inconclusive call is a rough fit, not a confirmed value.
# Target: Aldehyde dehydrogenase 1A1 (Homo sapiens) (UniProt P00352)
# Chain of UniProt P00352 (P00352 whole entry, looked up): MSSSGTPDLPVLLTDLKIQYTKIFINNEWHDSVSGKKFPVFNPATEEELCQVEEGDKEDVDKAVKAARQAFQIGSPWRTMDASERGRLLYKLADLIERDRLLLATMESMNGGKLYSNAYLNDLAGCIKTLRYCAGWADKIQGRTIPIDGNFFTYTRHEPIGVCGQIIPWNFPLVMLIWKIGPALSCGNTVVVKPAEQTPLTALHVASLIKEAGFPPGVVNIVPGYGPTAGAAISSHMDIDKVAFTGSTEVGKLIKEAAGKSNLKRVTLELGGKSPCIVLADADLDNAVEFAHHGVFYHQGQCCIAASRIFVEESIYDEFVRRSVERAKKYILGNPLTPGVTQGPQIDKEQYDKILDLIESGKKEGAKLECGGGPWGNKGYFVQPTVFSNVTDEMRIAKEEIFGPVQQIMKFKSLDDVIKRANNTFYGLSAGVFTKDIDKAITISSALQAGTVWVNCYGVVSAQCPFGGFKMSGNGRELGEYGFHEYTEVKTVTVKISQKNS
# Assay: qHTS Assay for Inhibitors of Aldehyde Dehydrogenase 1 (ALDH1A1)
# Details: Purified ALDH1A1, NADH fluorescence, propionaldehyde substrate; series mostly up to 75.3 µM
# Potency is read from the fitted curve at half-maximal effect; tags tell the direction and shape of the fitted curve.
row,SMILES,Potency
1,COc1cccc(-c2nc(N3CCNCC3)c3ccccc3n2)c1,inactive
2,COc1cc(C(=O)NNC(=S)NC(=O)/C=C/c2ccccc2)cc(OC)c1OC,"inconclusive: 39.8 µM [inhibitor, single point]"
3,CCOc1ccc(OCCSc2nnnn2C2CCCCC2)cc1,active: 15.8 µM
4,Cc1cc(CNC(=O)CC2C(=O)NCCN2Cc2ccccc2C(F)(F)F)on1 (stereo unspecified),"inconclusive: 35.5 µM [inhibitor, single point]"
5,Cc1oc(=O)c(NC(=O)c2ccccc2)cc1C(C)O (stereo unspecified),"inconclusive: 39.8 µM [inhibitor, single point]"
6,CCN(CC)S(=O)(=O)N1CCC(C(=O)NCC2COc3ccccc3O2)CC1 (stereo unspecified),active: 2.51 µM
7,CN1C(=O)c2cccc3c(Cl)ccc(c23)C1=O,"inconclusive: 31.6 µM [inhibitor, single point]"
8,COC(=O)c1cc(C(=O)c2ccc(C(C)(C)C)cc2)c[nH]1,"inconclusive: 39.8 µM [inhibitor, single point]"
9,Cc1sc(NC(=O)c2ccco2)c(C(Nc2ccccn2)c2ccccc2)c1C (stereo unspecified),inactive
10,CCCC(=O)c1cc2ccccc2oc1=O,inactive
11,CCCCN=c1scc(-c2ccc3c(c2)NC(=O)CO3)n1N=C1CCCC1,active: 3.16 µM
12,O=C(CSc1ccc(Cl)cc1)NNC(=O)c1cccnc1,inactive
13,COc1ccc(C)cc1NC(=O)COC(=O)c1ccc([N+](=O)[O-])o1,inactive
14,Oc1cccc(-c2nc3ccc4ccccc4c3c3c2CCC3)c1,"inconclusive: 22.4 µM [inhibitor, partial curve]"
15,CCOC(=O)NN1C(=O)c2ccccc2NC1c1cccnc1 (stereo unspecified),"inconclusive: 31.6 µM [inhibitor, partial curve]"
16,CCNC(=O)C1CC(=O)OC12CCCCC2 (stereo unspecified),inactive
17,COc1ccccc1Nc1nc(-c2sc(NC(=O)c3cccc(Cl)c3)nc2C)cs1,"inconclusive: 35.5 µM [inhibitor, single point]"
18,Cn1c(-c2ccc3c(c2)OCO3)cc(=O)c2ccccc21,"inconclusive: 15.8 µM [inhibitor, single point] and inconclusive: 39.8 µM [inhibitor, single point]"
19,CC(C)(C)c1ccc(C(=O)Nc2ccc(C=C(C#N)C#N)cc2)cc1,active: 3.98 µM
20,CC(=O)c1cc(C#N)c(N2CCCCC2)nc1C,"inconclusive: 35.5 µM [inhibitor, single point]"
21,CC(C)(C)NC(=O)COC(=O)CNC(=O)c1cc(Cl)cc([N+](=O)[O-])c1,inactive
22,O=C(CN1CCN(Cc2ccc3c(c2)OCO3)CC1)Nc1ccc2c(c1)OCO2,"inconclusive: 37.7 µM [inhibitor, single point]"
23,COc1ccc(S(=O)(=O)Cc2ccc(C(=O)NCc3ccccn3)o2)cc1,inactive
24,CCc1nnc(NS(=O)(=O)c2ccc(NC(=S)NC(=O)c3ccccc3)cc2)s1,"inconclusive: 37.7 µM [inhibitor, single point]"
25,CCOc1ccc(C(C)=O)cc1CN1C(=O)NC(C)(C2CC2)C1=O (stereo unspecified),"inconclusive: 31.6 µM [inhibitor, single point]"
26,COc1ccc(CCNC(=O)c2nc3ncccn3n2)cc1OC,inactive

row,SMILES,Potency
1,C[C@@H](NC(=O)c1coc(=O)c(Br)c1)c1ccccc1,"inconclusive: 28.2 µM [inhibitor, single point]"
2,COc1cccc(C(=O)NC(=S)Nn2cnnc2)c1OC,active: 7.94 µM
3,CCOC(=O)CNC(=O)CSc1nc2nc(C)c(Br)cc2[nH]1,inactive
4,CCc1c(C)sc(NC(=O)c2cc(C3CC3)on2)c1C#N,"inconclusive: 22.4 µM [inhibitor, single point]"
5,Cc1ccc(S(=O)(=O)Nc2ccc(C(OC(=O)c3ccccc3[N+](=O)[O-])(C(F)(F)F)C(F)(F)F)cc2)cc1,"inconclusive: 7.08 µM [inhibitor, single point]"
6,COc1ccc(C2CC(c3cccc(C)c3)n3nc(N)nc3N2)cc1 (stereo unspecified),"inconclusive: 39.8 µM [inhibitor, single point]"
7,CCOC(=O)c1nn(-c2ccc(C)cc2)cc1O,"inconclusive: 25.1 µM [inhibitor, partial curve]"
8,CCOc1ccc2ccccc2c1C1NC(=S)N(C)C(C)=C1C(=O)OC (stereo unspecified),inactive
9,CCOC(=O)c1c(NC(=O)CSc2nnc(Cc3ccccc3)o2)sc(C(C)=O)c1C,inactive
10,Cc1cc(=O)oc2cc(NS(=O)(=O)c3ccccc3)ccc12,"inconclusive: 28.2 µM [inhibitor, partial curve]"
11,COc1ccc(-c2n[nH]c(C(F)(F)F)c2-c2cc3ccccc3o2)c(O)c1,"inconclusive: 28.2 µM [inhibitor, partial curve]"
12,CCOC(=O)C1CN(S(=O)(=O)c2ccc(C)cc2)c2cc(S(=O)(=O)CC)ccc2O1 (stereo unspecified),"inconclusive: 20 µM [inhibitor, partial curve, poor fit]"
13,S=C(NCCc1ccccc1)NC1CCC(NC(=S)NCCc2ccccc2)CC1 (stereo unspecified),inactive
14,CC1CC(C)(C)NC(=S)N1CCC(=O)N1CCc2ccccc2C1 (stereo unspecified),"inconclusive: 39.8 µM [inhibitor, single point]"
15,O=C(CCSc1ccccc1)NCCSCc1ccco1,active: 11.2 µM
16,CCCCC(=O)NC(=S)NNS(=O)(=O)c1ccccc1,active: 8.91 µM
17,CCOC(=O)COc1ccc2c(=O)c(-c3ccccc3OC)coc2c1,inactive
18,NS(=O)(=O)c1ccc(NC(=O)COc2ncnc3c2cnn3-c2ccccc2)cc1,inactive
19,Cc1cnn(C(=S)NCC2CCCO2)c1 (stereo unspecified),"inconclusive: 31.6 µM [inhibitor, single point]"
20,NC(=O)c1c(NC(=O)CN2C(=O)CCC2=O)sc2c1CCCCC2,active: 14.1 µM
21,CCOC(=O)CNC1CC(=O)N(c2cccc(Cl)c2)C1=O (stereo unspecified),active: 17.8 µM
22,COc1ccc(S(=O)(=O)N(CCN2CCOCC2)Cc2cc(OC)ccc2OC)cc1,"inconclusive: 25.1 µM [inhibitor, partial curve]"
23,CCOc1ccc2nc(Cl)c(CN(C(C)=O)C3CCCCC3)cc2c1,"inconclusive: 39.8 µM [inhibitor, single point]"
24,O=C(NCC(c1cccnc1)N1CCN(c2ccc(F)cc2)CC1)OCc1ccccc1 (stereo unspecified),"inconclusive: 39.8 µM [inhibitor, single point]"
25,Cc1ccc(COC(=O)c2nn(-c3ccccc3)nc2N)cc1,"inconclusive: 25.1 µM [inhibitor, partial curve]"
26,CCCn1c(C)cc(C(=O)Cn2nnc3ccccc3c2=O)c1C,"inconclusive: 25.1 µM [inhibitor, single point]"

row,SMILES,Potency
1,N#Cc1cc(N2CCCCC2)c([N+](=O)[O-])cc1C#N,"inconclusive: 5.01 µM [inhibitor, single point]"
2,COc1c(C)cc(C(=O)C2CCCN(C(=O)c3cccc(-n4cccn4)c3)C2)cc1C (stereo unspecified),"inconclusive: 39.8 µM [inhibitor, single point]"
3,COc1cc(NC(=O)COC(=O)C=C(C)C)c(C)cc1[N+](=O)[O-],inactive
4,COc1ccc2c(-c3ccccc3)cc(=O)[nH]c2c1,"inconclusive: 22.4 µM [inhibitor, partial curve]"
5,CC(NCc1ccc2c(c1)OCO2)C(=O)NC1CCCCC1 (stereo unspecified),active: 35.5 µM
6,CCCC(=O)C1=C(O)C(c2cccc(Oc3ccccc3)c2)CCC1=O (stereo unspecified),inactive
7,Cc1cc(NS(=O)(=O)N(C)C)ccc1C(C)C,"inconclusive: 39.8 µM [inhibitor, single point]"
8,COCCCNC(=O)/C(C#N)=C/c1ccc(OCC(=O)O)c(OC)c1,"inconclusive: 39.8 µM [inhibitor, single point]"
9,COc1ccc(/C(C)=N\Nc2nc(-c3ccccc3)cc(=O)[nH]2)cc1,"inconclusive: 20 µM [inhibitor, partial curve]"
10,CCSc1ncc(/C=N/Nc2ccc(F)cc2)n1C,"inconclusive: 39.8 µM [inhibitor, single point]"
11,C=CCNC(=S)NNC(=O)COc1c(Cl)cc(Cl)cc1Cl,"inconclusive: 5.01 µM [inhibitor, partial curve, poor fit]"
12,CCN(CC)CCN1C(=O)C(=O)/C(=C(/O)c2cnn(-c3ccccc3)c2C)C1c1cccnc1 (stereo unspecified),inactive
13,Cn1cc(/C=C2\SC(=O)NC2=S)c2ccccc21,active: 1.41 µM
14,CC(C)CCOCC(O)CCC(=O)NNC(=S)Nc1ccccc1 (stereo unspecified),"inconclusive: 39.8 µM [inhibitor, single point]"
15,Cc1sc2ncnc(OCC(=O)Nc3ccc4c(c3)OCCO4)c2c1C,active: 20 µM
16,COc1c2c(cc3oc(C)cc(=O)c13)OC(C(C)(C)OC1OC(CO)C(O)C(O)C1O)C2 (stereo unspecified),"inconclusive: 28.2 µM [inhibitor, partial curve]"
17,CCC(C(=O)NC1CCCCC1)N(Cc1cccs1)C(=O)c1snc(C(N)=O)c1N (stereo unspecified),"inconclusive: 35.5 µM [inhibitor, single point]"
18,COc1ccccc1N(O)C1CC(=O)N(c2ccc(F)cc2)C1=O (stereo unspecified),active: 1.26 µM
19,COc1ccc(CCn2c(C)c(C(C)=O)c(C(C)=O)c2C)cc1OC,inactive
20,Cc1ccccc1C(=O)NNC1CC(=O)N(c2ccc3c(c2)OCCO3)C1=O (stereo unspecified),inactive
21,Cc1nc([N+](=O)[O-])nn1C12CC3CC(CC(Br)(C3)C1)C2,active: 8.91 µM
22,O=C(CCC(=O)c1cccs1)c1cccs1,active: 28.2 µM
23,CCc1nc(SCc2ccccn2)[nH]c(=O)c1C,inactive
24,COc1ccc(CNC(=O)C2CCCN2C(=O)NC2CCCCC2)cc1 (stereo unspecified),"inconclusive: 39.8 µM [inhibitor, single point]"
